This is one part of the list. Cut-off read from the data, not from the text of the source: active = 3.2 or more and inactive = the rest. Most of these values are background signal.
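Note: displayed peptides selected on beads carrying the immobilized SH2 domain, with library peptides lacking any tyrosine serving as negative controls.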

One experiment deals with SHP2 C-SH2 domain E139D. In words: enrichment score (SH2-bound / input frequency) (ratio); bacterial display of known human phosphotyrosine sites (pTyr-Var adds point mutants) read by sequencing; higher = stronger binding; tyrosines were phosphorylated by kinases first. Conditions: peptide library: pTyr-Var.
For the molecule MENFIYESMRY [CYP19A1_Y361], the enrichment score was inactive: 1.13.
For KAPPTYDNVLQ [CYP3A4_Y347_T349N], the enrichment score was inactive: 0.931.
With GVRFIYTIDGS [DCX_Y105_YF], the enrichment score is inactive: 1.01.
On to TVLGEYASPKG [CYP24A1_Y407_L409S], for which the enrichment score was inactive: 0.471.
As for LNGDRYFKGIV [DCX_Y64_R59L], the enrichment score was inactive: 0.616.
Still for that read-out and setting: the figure for ALTRSYVREKV [CYP2C8_Y243_I244V] is inactive: 0.397; for GYAGKYIAMVM [CYP19A1_Y441_C437Y] it is inactive: 1.08; for SRDPFYEMLTA [CYTH1_Y382_A386T] it is inactive: 0.967.
For NLMPAYHKCIQ [CYP21A2_Y190_Y191H], the enrichment score was inactive: 0.922.
Regarding MENFIYESMQF [CYP19A1_Y361_R365Q_YF], the enrichment score is inactive: 0.954.
For the molecule EEVPLYESATT [DCC_Y809_G805E], the enrichment score is inactive: 0.704.
Turning to PLTRSYIREKV [CYP2C8_Y243_A238P], the enrichment score is inactive: 0.475.
Consider PQGVSYIFTID [DCX_Y103_R102S_YF], for which the enrichment score was inactive: 0.97.
Consider ESFRLYPPVPQ [CYP4B1_Y377], for which the enrichment score is inactive: 0.826.
The same measure, in the same setting: in the case of MENFIYESMQY [CYP19A1_Y361_R365Q] it was inactive: 1.15.
Turning to KLQKKYGPIYS [CYP17A1_Y60], the enrichment score is inactive: 0.822.
On the same count and under the same terms, in the case of EGVPLYESATT [DCC_Y809] it was inactive: 0.734.
Take RMSQRYRDVLQ [CYP1A2_Y72_G73R]: the enrichment score is inactive: 0.239.

The next experiment deals with SHP2 C-SH2 domain wild-type. The experiment is described as above. Conditions: peptide library: pTyr-Var.
As to MENFIYESMRY [CYP19A1_Y361], the enrichment score was inactive: 1.14.
Take KAPPTYDNVLQ [CYP3A4_Y347_T349N]: the enrichment score is inactive: 0.828.
The same measure, in the same setting: in the case of GVRFIYTIDGS [DCX_Y105_YF] it was inactive: 1.31.
In the case of TVLGEYASPKG [CYP24A1_Y407_L409S], the enrichment score is inactive: 0.545.
Take LNGDRYFKGIV [DCX_Y64_R59L]: the enrichment score is inactive: 0.492.
On to ALTRSYVREKV [CYP2C8_Y243_I244V], for which the enrichment score is inactive: 0.334.
GYAGKYIAMVM [CYP19A1_Y441_C437Y]: the enrichment score was inactive: 1.06.
Take SRDPFYEMLTA [CYTH1_Y382_A386T]: the enrichment score is inactive: 0.891.
Still for that read-out and setting: the figure for NLMPAYHKCIQ [CYP21A2_Y190_Y191H] is inactive: 1.12.
Turning to MENFIYESMQF [CYP19A1_Y361_R365Q_YF], the enrichment score was inactive: 1.16.
For EEVPLYESATT [DCC_Y809_G805E], the enrichment score was inactive: 0.768.
For PLTRSYIREKV [CYP2C8_Y243_A238P], the enrichment score was inactive: 0.463.
For the molecule PQGVSYIFTID [DCX_Y103_R102S_YF], the enrichment score was inactive: 1.11.
For ESFRLYPPVPQ [CYP4B1_Y377], the enrichment score was inactive: 0.625.
Take MENFIYESMQY [CYP19A1_Y361_R365Q]: the enrichment score was inactive: 0.86.
Regarding KLQKKYGPIYS [CYP17A1_Y60], the enrichment score was inactive: 0.847.
As for EGVPLYESATT [DCC_Y809], the enrichment score was inactive: 0.579.
For the molecule RMSQRYRDVLQ [CYP1A2_Y72_G73R], the enrichment score was inactive: 0.193.

The target in a further experiment is SHP2 N-SH2 domain L43F. The experiment is described as above. Conditions: peptide library: pTyr-Var.
For MENFIYESMRY [CYP19A1_Y361], the enrichment score is inactive: 1.2.
Take KAPPTYDNVLQ [CYP3A4_Y347_T349N]: the enrichment score was inactive: 0.816.
As for GVRFIYTIDGS [DCX_Y105_YF], the enrichment score was inactive: 1.26.
Consider TVLGEYASPKG [CYP24A1_Y407_L409S], for which the enrichment score is inactive: 0.526.
Turning to LNGDRYFKGIV [DCX_Y64_R59L], the enrichment score was inactive: 0.671.
Same read-out and setting: the figure for ALTRSYVREKV [CYP2C8_Y243_I244V] is inactive: 0.464.
Consider GYAGKYIAMVM [CYP19A1_Y441_C437Y], for which the enrichment score was inactive: 0.958.
As for SRDPFYEMLTA [CYTH1_Y382_A386T], the enrichment score is inactive: 0.877.
As for NLMPAYHKCIQ [CYP21A2_Y190_Y191H], the enrichment score is inactive: 1.33.
Consider MENFIYESMQF [CYP19A1_Y361_R365Q_YF], for which the enrichment score is inactive: 1.02.
As for EEVPLYESATT [DCC_Y809_G805E], the enrichment score is inactive: 0.646.
For PLTRSYIREKV [CYP2C8_Y243_A238P], the enrichment score is inactive: 0.621.
In the case of PQGVSYIFTID [DCX_Y103_R102S_YF], the enrichment score was inactive: 0.903.
Still for that read-out and setting: in the case of ESFRLYPPVPQ [CYP4B1_Y377] it was inactive: 0.657; in that of MENFIYESMQY [CYP19A1_Y361_R365Q], inactive: 1.03.
Consider KLQKKYGPIYS [CYP17A1_Y60], for which the enrichment score is inactive: 0.615.
Turning to EGVPLYESATT [DCC_Y809], the enrichment score is inactive: 0.655.
Same read-out and setting: in the case of RMSQRYRDVLQ [CYP1A2_Y72_G73R] it was inactive: 0.339.

The next experiment concerns the target SHP2 N-SH2 domain T42A. The description is as above. The conditions noted are these: peptide library: pTyr-Var.
As for MENFIYESMRY [CYP19A1_Y361], the enrichment score was inactive: 1.06.
For the molecule KAPPTYDNVLQ [CYP3A4_Y347_T349N], the enrichment score is inactive: 0.975.
GVRFIYTIDGS [DCX_Y105_YF]: the enrichment score was inactive: 1.08.
As for TVLGEYASPKG [CYP24A1_Y407_L409S], the enrichment score was inactive: 0.449.
For the molecule LNGDRYFKGIV [DCX_Y64_R59L], the enrichment score is inactive: 0.6.
For ALTRSYVREKV [CYP2C8_Y243_I244V], the enrichment score is inactive: 0.7.
GYAGKYIAMVM [CYP19A1_Y441_C437Y]: the enrichment score was inactive: 0.942.
Same read-out and setting: in the case of SRDPFYEMLTA [CYTH1_Y382_A386T] it was inactive: 0.828; in that of NLMPAYHKCIQ [CYP21A2_Y190_Y191H], inactive: 0.881; in that of MENFIYESMQF [CYP19A1_Y361_R365Q_YF], inactive: 0.887.
Take EEVPLYESATT [DCC_Y809_G805E]: the enrichment score is inactive: 0.575.
Take PLTRSYIREKV [CYP2C8_Y243_A238P]: the enrichment score was inactive: 0.371.
As to PQGVSYIFTID [DCX_Y103_R102S_YF], the enrichment score was inactive: 1.5.
Still for that read-out and setting: the figure for ESFRLYPPVPQ [CYP4B1_Y377] is inactive: 0.874; for MENFIYESMQY [CYP19A1_Y361_R365Q] it is inactive: 0.892.
As for KLQKKYGPIYS [CYP17A1_Y60], the enrichment score was inactive: 0.524.
Take EGVPLYESATT [DCC_Y809]: the enrichment score was inactive: 0.624.
For RMSQRYRDVLQ [CYP1A2_Y72_G73R], the enrichment score is inactive: 0.186.

The target in another experiment is SHP2 N-SH2 domain T52S. Described as above. The conditions noted are these: peptide library: pTyr-Var.
Regarding MENFIYESMRY [CYP19A1_Y361], the enrichment score is inactive: 1.3.
Same read-out and setting: the figure for KAPPTYDNVLQ [CYP3A4_Y347_T349N] is inactive: 0.92; for GVRFIYTIDGS [DCX_Y105_YF] it is inactive: 1.18; for TVLGEYASPKG [CYP24A1_Y407_L409S] it is inactive: 0.432.
The same measure, in the same setting: in the case of LNGDRYFKGIV [DCX_Y64_R59L] it was inactive: 0.784.
Still for that read-out and setting: in the case of ALTRSYVREKV [CYP2C8_Y243_I244V] it was inactive: 0.335; in that of GYAGKYIAMVM [CYP19A1_Y441_C437Y], inactive: 0.905; in that of SRDPFYEMLTA [CYTH1_Y382_A386T], inactive: 1.01.
Consider NLMPAYHKCIQ [CYP21A2_Y190_Y191H], for which the enrichment score was inactive: 0.835.
As to MENFIYESMQF [CYP19A1_Y361_R365Q_YF], the enrichment score was inactive: 1.04.
Turning to EEVPLYESATT [DCC_Y809_G805E], the enrichment score was inactive: 0.53.
In the case of PLTRSYIREKV [CYP2C8_Y243_A238P], the enrichment score is inactive: 0.429.
On to PQGVSYIFTID [DCX_Y103_R102S_YF], for which the enrichment score was inactive: 1.03.
For ESFRLYPPVPQ [CYP4B1_Y377], the enrichment score is inactive: 0.751.
As for MENFIYESMQY [CYP19A1_Y361_R365Q], the enrichment score is inactive: 0.977.
Still for that read-out and setting: the figure for KLQKKYGPIYS [CYP17A1_Y60] is inactive: 0.724; for EGVPLYESATT [DCC_Y809] it is inactive: 0.744; for RMSQRYRDVLQ [CYP1A2_Y72_G73R] it is inactive: 0.305.

For another experiment, the target named is SHP2 N-SH2 domain wild-type. The description is as above. Conditions: peptide library: pTyr-Var.
As to MENFIYESMRY [CYP19A1_Y361], the enrichment score was inactive: 1.1.
The same measure, in the same setting: in the case of KAPPTYDNVLQ [CYP3A4_Y347_T349N] it was inactive: 0.798.
Take GVRFIYTIDGS [DCX_Y105_YF]: the enrichment score was inactive: 1.18.
Turning to TVLGEYASPKG [CYP24A1_Y407_L409S], the enrichment score is inactive: 0.574.
In the case of LNGDRYFKGIV [DCX_Y64_R59L], the enrichment score is inactive: 0.743.
The same measure, in the same setting: the figure for ALTRSYVREKV [CYP2C8_Y243_I244V] is inactive: 0.814; for GYAGKYIAMVM [CYP19A1_Y441_C437Y] it is inactive: 1.06; for SRDPFYEMLTA [CYTH1_Y382_A386T] it is inactive: 0.915.
NLMPAYHKCIQ [CYP21A2_Y190_Y191H]: the enrichment score is inactive: 1.17.
As to MENFIYESMQF [CYP19A1_Y361_R365Q_YF], the enrichment score is inactive: 1.04.
In the case of EEVPLYESATT [DCC_Y809_G805E], the enrichment score is inactive: 0.972.
PLTRSYIREKV [CYP2C8_Y243_A238P]: the enrichment score is inactive: 0.592.
Regarding PQGVSYIFTID [DCX_Y103_R102S_YF], the enrichment score is inactive: 1.06.
ESFRLYPPVPQ [CYP4B1_Y377]: the enrichment score is inactive: 0.681.
In the case of MENFIYESMQY [CYP19A1_Y361_R365Q], the enrichment score was inactive: 0.989.
As for KLQKKYGPIYS [CYP17A1_Y60], the enrichment score was inactive: 0.75.
For the molecule EGVPLYESATT [DCC_Y809], the enrichment score was inactive: 0.791.
Turning to RMSQRYRDVLQ [CYP1A2_Y72_G73R], the enrichment score is inactive: 0.345.

The values above are taken from the supplement of paper PMC10369915.
